In publication PMC4336329 (PLoS ONE, 2015):
Among all 310,000 compounds or so, about 14,000 (4.5%) showed an effect of 50% or more. Effects have a minus sign here. The list shows a part of the results.

What follows are compounds tested against human ether-à-go-go-related gene (hERG) potassium channel (human, UniProt Q12809) (assay: primary screen, population patch clamp on CHO cells stably expressing hERG).
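Also: peak tail current of the secondary pulse compared with the same well before compound.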

human ether-à-go-go-related gene (hERG) potassium channel, sequence (Q12809 whole entry, looked up): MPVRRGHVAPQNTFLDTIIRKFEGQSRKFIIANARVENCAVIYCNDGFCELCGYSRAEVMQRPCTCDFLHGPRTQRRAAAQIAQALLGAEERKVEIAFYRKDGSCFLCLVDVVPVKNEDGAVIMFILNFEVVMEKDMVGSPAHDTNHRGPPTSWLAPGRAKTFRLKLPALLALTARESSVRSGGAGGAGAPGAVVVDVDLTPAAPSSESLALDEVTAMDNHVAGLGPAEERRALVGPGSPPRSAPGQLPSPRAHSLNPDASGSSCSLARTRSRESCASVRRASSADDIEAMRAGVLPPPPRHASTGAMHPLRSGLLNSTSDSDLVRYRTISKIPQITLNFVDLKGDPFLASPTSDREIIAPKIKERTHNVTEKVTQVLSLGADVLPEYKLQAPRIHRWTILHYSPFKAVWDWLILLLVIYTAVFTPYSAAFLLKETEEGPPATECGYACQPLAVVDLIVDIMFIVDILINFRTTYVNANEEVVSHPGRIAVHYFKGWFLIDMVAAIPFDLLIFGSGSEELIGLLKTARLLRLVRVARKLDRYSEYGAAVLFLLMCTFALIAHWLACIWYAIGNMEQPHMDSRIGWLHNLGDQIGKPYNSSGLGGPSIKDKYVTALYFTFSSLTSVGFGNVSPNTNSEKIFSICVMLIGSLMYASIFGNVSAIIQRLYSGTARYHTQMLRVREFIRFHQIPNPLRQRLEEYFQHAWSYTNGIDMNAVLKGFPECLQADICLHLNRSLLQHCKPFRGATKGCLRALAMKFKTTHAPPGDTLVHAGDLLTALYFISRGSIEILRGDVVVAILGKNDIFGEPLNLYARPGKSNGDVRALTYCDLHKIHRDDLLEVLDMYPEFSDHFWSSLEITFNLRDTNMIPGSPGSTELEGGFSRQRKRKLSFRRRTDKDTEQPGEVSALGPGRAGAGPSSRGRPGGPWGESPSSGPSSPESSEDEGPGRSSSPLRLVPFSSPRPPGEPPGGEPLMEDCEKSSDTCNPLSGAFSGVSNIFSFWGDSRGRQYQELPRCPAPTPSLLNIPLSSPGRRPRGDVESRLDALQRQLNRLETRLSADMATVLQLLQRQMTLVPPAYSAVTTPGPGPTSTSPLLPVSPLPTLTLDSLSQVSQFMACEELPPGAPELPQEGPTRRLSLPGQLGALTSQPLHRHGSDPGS

SMILES	hERG current change (%, negative = inhibition) at 10uM [%]
O=C1C2C3CCC(O3)C2C(=O)N1CCO (stereo not drawn)	-1.17
CCN1CCN(CC(c2ccccc2)c2ccccc2)CC1	-44.7
CS(=O)(=O)Nc1ccc(C(=O)Nc2ccccc2-c2ccccc2)cc1	-65.9
COc1cc(C)nc(N(Cc2ccccc2)S(=O)(=O)c2ccccc2)n1	0.102
Cc1ccc(C(=O)C[n+]2cccc3ccccc32)cc1.[Br-]	-9.35
CN=C1SC(CC(=O)Nc2cccc(Cl)c2Cl)C(=O)N1C (stereo not drawn)	-7.05
CCOc1ccc(-c2nnn(CC(=O)Nc3cc(OC)ccc3OC)n2)cc1OCC	2.93
O=C(Nc1cccc(C(=O)O)c1)/C(=C/c1cccc([N+](=O)[O-])c1)NC(=O)c1cccc(Br)c1	19.2
CCOc1ccc(Nc2oc(-c3cccs3)nc2C#N)cc1	14.5
CCOC(=O)CCNC(=O)N1CCCC(CCC(=O)N(C)CCc2ccccn2)C1 (stereo not drawn)	-52.3
CCOc1ncccc1C(=O)Nc1cccc(-c2nnc3n2CCCCC3)c1	-19.6
COc1cccc(CNn2cnnc2)c1O	12.8
CC1=C(C(N)=O)C(c2ccc(Cl)cc2)n2nc(CCCO)nc2N1 (stereo not drawn)	16.9
O=c1[nH]c2ccccc2cc1CN(CC1CCCO1)S(=O)(=O)c1ccc(Cl)cc1 (stereo not drawn)	-75.1
NC(=O)c1ccc(NC(=O)COC(=O)/C=C/c2cccs2)cc1	14.6
CC(C)Cc1ccc(CN2CCCC(NC(=O)CCN3CCCCC3=O)C2)cc1 (stereo not drawn)	-45.3
Cc1c(NC(=O)C(C)OC(=O)c2nc(Cl)ccc2Cl)c(=O)n(-c2ccccc2)n1C (stereo not drawn)	12.5
O=C(O)C1CCCCC1C(=O)Nc1ccccc1C(=O)N1CCN(c2ccc(F)cc2)CC1 (stereo not drawn)	2.56
Cc1cc(NC(=O)Nc2ccc(F)cc2)no1	-8.3

SMILES	hERG current change (%, negative = inhibition) at 10uM [%]
CC(=O)c1cccc(CN2CCC(n3nccc3NC(=O)CCOc3ccccc3)CC2)c1	-3.2
Cc1c(OC(=O)N(C)C)ccc2c1O/C(=C\c1ccco1)C2=O	12
CCOc1c2ccc(C(=O)NCc3cc(C(F)(F)F)cc(C(F)(F)F)c3)cc2nn1CCOC	-7.2
COCc1cc(C)n(CC(=O)Nc2ccc(N3CCOCC3)cc2)c(=O)c1C#N	10.5
Cc1ccc(CNC(=O)c2ccccc2N(C)S(C)(=O)=O)cc1	-7.38
CC1CCCC(C)N1C(=O)CSc1nnnn1Cc1ccccc1 (stereo not drawn)	-3.54
CCN1CCN(C(=O)C2CCN(S(=O)(=O)N3CCC4(CC3)OCCO4)CC2)CC1	17.6
COC(=O)[C@H](CCSC)NC(=O)NCc1ccccc1F	-3.01
CC(Oc1ccc(-c2ccccc2)c(F)c1)c1ccn(S(=O)(=O)c2cccc3ccccc23)n1 (stereo not drawn)	-3.2
CN(Cc1ccccc1)C(=O)CCS(=O)(=O)c1cc2c(cc1Cl)NC(=O)CO2	-38.9
Cc1cccc2c1cnn2C(=O)Nc1ccccc1Cl	17.9
COc1ccc(-c2nnc3sc(C4CCCCC4)nn23)cc1OC	-51.1
Cc1cc(C)n2nc(C(=O)OCC(=O)N(C)C3CCS(=O)(=O)C3)nc2n1 (stereo not drawn)	7
COc1ccc(S(=O)(=O)N2CCN(C3CCCCCCC3)CC2)cc1	-15.1
Cc1ccccc1OCC(=O)OCC(=O)NC1CC1	14
CCOc1cc(NC(=S)NCCCN2CCOCC2)c(OCC)cc1NC(=O)c1ccc(C)cc1	-13.3
COc1cccc(OC)c1C(=O)Nc1ccc(N2CCCC2)cc1	7.52
O=C(CCC(F)(F)F)N1CCC(CO)(CCc2ccccc2)CC1	-12
CN(C)CC(C)(C)CNC(=O)C1CCN(Cc2ccccc2O)CC1	11.2

SMILES	hERG current change (%, negative = inhibition) at 10uM [%]
CCOc1ccc(CNC(=O)CCc2cn(C)c3ccccc23)cc1	9.59
COc1ccccc1/C=C/C=N/n1c(-c2n[nH]c3c2CCC3)n[nH]c1=S	18.8
COc1cc(NC(=O)c2ccccc2)c(OC)cc1NC(=O)Cc1ccc(C)cc1	14.6
CCOc1ccc(C2NC(=O)C(C#N)=C(S)N2c2ccc(C)cc2)cc1OC (stereo not drawn)	12.1
COc1ccc(C2(CNC(=O)c3cccs3)CCOCC2)cc1	7.16
CCOc1ccc(NC2=NC(C)(C)N=C(N)N2)cc1	7.83
CC(C)[C@H](NC(=O)c1ccccc1)C(=O)OCC(=O)N1CCN(C(=O)c2ccco2)CC1	4.62
CCN(C(=O)c1nn(-c2ccc(OC)cc2)c(=O)c2c1c1ccccc1n2C)c1ccc(OC)cc1	18.3
COc1ccc(/C=C/C(=O)NC2=NCCS2)cc1OC	3.96
CC(NC(=O)C(c1ccccc1)c1ccccc1)C(=O)O (stereo not drawn)	-6.09
CCCN(CCC)S(=O)(=O)c1ccc(C(=O)Nc2nnc(COC)o2)cc1	-1.57
Oc1ccc2ccccc2c1N=Nc1nccs1	21
OCCCc1nc2n(n1)C(c1ccccc1Cl)C=C(c1cccs1)N2 (stereo not drawn)	-5.71
COc1ccc(C(=O)N2CCN=C2SCc2cccnc2)cc1OC	-2.85
Cc1ccc(C)c(NC(=O)CN(C)C(=O)Cn2c(=O)oc3ccccc32)c1	5.25
CCOc1ccc(/C=N/n2cnnc2)cc1	10.9
CCCc1c(C(=O)O)cnn1-c1ccc(Cl)cc1	27.9
O=C([O-])c1cc(-c2ccco2)nc2ccc(Br)cc12.[K+]	3.31
CS(=O)(=O)N(CC(=O)N1CCc2ccccc2C1)Cc1ccccc1	-12.9
